Test results from the supplement of paper PMC4604168 (melanoma cell lines).
The list shows a part of the results. Most values come without repeats; read them as rough.

Legend:
Test in all cases: cell count relative to DMSO control; melanoma cells; higher = more viable cells
Conditions in all cases: library dose: low library concentration; 72 h
MZ2-MEL = system: MZ2-MEL
MeWo = system: MeWo
RPMI7951 = system: RPMI7951
RVH-421 = system: RVH-421
SkMel28 = system: SkMel28
SkMel2 = system: SkMel2
SkMel30 = system: SkMel30
SkMel5 = system: SkMel5
UACC257 = system: UACC257
UACC62 = system: UACC62
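Note: cell number obtained by counting DAPI-stained nuclei in high-throughput microscope images with image analysis software, screen run in 1,536-well plates.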

Compound	cell count (MZ2-MEL)	cell count (MeWo)	cell count (RPMI7951)	cell count (RVH-421)	cell count (SkMel28)	cell count (SkMel2)	cell count (SkMel30)	cell count (SkMel5)	cell count (UACC257)	cell count (UACC62)
COc1cc(Nc2ncc(F)c(Nc3ccc4c(n3)NC(=O)C(C)(C)O4)n2)cc(OC)c1OC [Tamatinib] + COc1cc2c(Oc3ccc4[nH]c(C)cc4c3F)ncnc2cc1OCCCN1CCCC1 [cediranib] (first compound 0.4 µM, partner dose 0.4 µM)	91.4%	90.8%	76.1%	96%	83.4%	106%	72.1%	75.2%	62.8%	65.1%
O=c1[nH]nc(Sc2ncc([N+](=O)[O-])s2)n1-c1ccc2c(c1)OCCO2 + O=C(O)C(=O)Nc1sc2c(c1C(=O)O)CCNC2 [TCS401] (first compound 0.2 µM, partner dose 1.66667 µM)	103%	104%	91%	96.2%	96.5%	105%	93%	95.7%	97.5%	91.7%
COc1cc(Nc2ncc(F)c(Nc3ccc4c(n3)NC(=O)C(C)(C)O4)n2)cc(OC)c1OC [Tamatinib] + CO[C@@H]1[C@H](N(C)C(=O)c2ccccc2)C[C@H]2O[C@]1(C)n1c3ccccc3c3c4c(c5c6ccccc6n2c5c31)C(=O)NC4 [Midostaurin] (first compound 0.4 µM, partner dose 0.08 µM)	78.1%	73.2%	61.3%	79.7%	102%	64.2%	93.4%	81.9%	64%	70.9%
O=c1[nH]nc(Sc2ncc([N+](=O)[O-])s2)n1-c1ccc2c(c1)OCCO2 + O=C(Nc1cccc(Cl)c1)Nc1ncc(CCNc2ncnc3ccsc23)s1 [SNS314] (first compound 0.2 µM, partner dose 0.0008 µM)	120%	91.4%	106%	99.4%	101%	96.3%	111%	89.9%	71.5%	99.3%
C[C@@H]1CCN(C(=O)CC#N)C[C@@H]1N(C)c1ncnc2[nH]ccc12 + CN(C)S(=O)(=O)c1ccc2c(c1)/C(=C/c1cc3c([nH]1)CCCC3)C(=O)N2 [SU6656] (first compound 1 µM, partner dose 0.4 µM)	103%	100%	104%	70.1%	84.5%	92.7%	111%	93.8%	92.4%	83.1%
COc1cc(Nc2ncc(F)c(Nc3ccc4c(n3)NC(=O)C(C)(C)O4)n2)cc(OC)c1OC [Tamatinib] + NC(=O)Nc1cc(-c2cccc(F)c2)sc1C(=O)N[C@H]1CCCNC1 [AZD7762] (first compound 0.4 µM, partner dose 0.02 µM)	108%	91%	78.3%	116%	89.5%	97.5%	76.9%	97.9%	106%	90.8%
O=c1[nH]nc(Sc2ncc([N+](=O)[O-])s2)n1-c1ccc2c(c1)OCCO2 + NCC(=O)Nc1ccc(-n2nc(C(F)(F)F)cc2-c2ccc3c(ccc4ccccc43)c2)cc1 [OSU03012] (first compound 0.2 µM, partner dose 1 µM)	97%	53.1%	111%	92.5%	83.8%	50.9%	57.4%	85.1%	118%	106%
COc1cc(Nc2ncc(F)c(Nc3ccc4c(n3)NC(=O)C(C)(C)O4)n2)cc(OC)c1OC [Tamatinib] + C[C@@H]1CCN(C(=O)CC#N)C[C@@H]1N(C)c1ncnc2[nH]ccc12 [CP690550] (first compound 0.4 µM, partner dose 1 µM)	95.3%	83.7%	88.7%	98.1%	71.5%	92.6%	87.2%	94%	83.7%	78.6%
O=C(O)c1ccc(-c2c[nH]c3ncc(-c4ccccc4)cc23)cc1C1CCCC1 + COc1cc2c(Oc3ccc4[nH]c(C)cc4c3F)ncnc2cc1OCCCN1CCCC1 [cediranib] (first compound 0.16 µM, partner dose 0.4 µM)	90.4%	91.3%	88.2%	59.9%	88.6%	85%	93.1%	71.5%	90.2%	88%
O=C(Nc1cccc(Cl)c1)Nc1ncc(CCNc2ncnc3ccsc23)s1 + CN(C)S(=O)(=O)c1ccc2c(c1)/C(=C/c1cc3c([nH]1)CCCC3)C(=O)N2 [SU6656] (first compound 0.0008 µM, partner dose 0.4 µM)	103%	86.1%	101%	94.4%	83.2%	100%	95%	96.5%	81.5%	74.6%
O=c1[nH]nc(Sc2ncc([N+](=O)[O-])s2)n1-c1ccc2c(c1)OCCO2 + N#Cc1c(O)c2c(-c3ccc(-c4ccccc4O)cc3)csc2[nH]c1=O [A769662] (first compound 0.2 µM, partner dose 2 µM)	109%	113%	110%	121%	97.4%	114%	106%	116%	116%	125%
O=c1[nH]nc(Sc2ncc([N+](=O)[O-])s2)n1-c1ccc2c(c1)OCCO2 + CN(C)S(=O)(=O)c1ccc2c(c1)/C(=C/c1cc3c([nH]1)CCCC3)C(=O)N2 [SU6656] (first compound 0.2 µM, partner dose 0.4 µM)	102%	84.2%	125%	94.3%	81.9%	91.7%	106%	74.9%	68.2%	82.9%
COc1cc(Nc2ncc(F)c(Nc3ccc4c(n3)NC(=O)C(C)(C)O4)n2)cc(OC)c1OC [Tamatinib] + Cc1cc(N2CCOCC2)cc2[nH]c(-c3c(NC[C@@H](O)c4cccc(Cl)c4)cc[nH]c3=O)nc12 [BMS536924] (first compound 0.4 µM, partner dose 0.2 µM)	85.7%	78.9%	95.6%	79.9%	69.3%	76.2%	86.3%	81.6%	51.1%	88%
C[C@@H]1CCN(C(=O)CC#N)C[C@@H]1N(C)c1ncnc2[nH]ccc12 + O=C(O)c1ccc(-c2c[nH]c3ncc(-c4ccccc4)cc23)cc1C1CCCC1 [GSK650394] (first compound 1 µM, partner dose 0.16 µM)	97.4%	94.1%	95.9%	68.4%	82.7%	95.9%	99%	98.6%	83.8%	101%
CC1(C)NC(=O)N(c2ccc([N+](=O)[O-])c(C(F)(F)F)c2)C1=O [nilutamide] + O=C(Nc1cccc(Cl)c1)Nc1ncc(CCNc2ncnc3ccsc23)s1 [SNS314] (first compound 1 µM, partner dose 0.0008 µM)	104%	95.6%	119%	81.9%	103%	93.3%	125%	97.9%	78.3%	97.8%
O=c1[nH]nc(Sc2ncc([N+](=O)[O-])s2)n1-c1ccc2c(c1)OCCO2 + CC(C)CCN1c2nc(Nc3cc(F)c(O)c(F)c3)ncc2N(C)C(=O)C1C [BID1870] (first compound 0.2 µM, partner dose 0.2 µM)	103%	97.5%	111%	93.4%	81.5%	101%	89.1%	128%	99.5%	103%
O=c1[nH]nc(Sc2ncc([N+](=O)[O-])s2)n1-c1ccc2c(c1)OCCO2 + COc1cc2ncnc(Nc3ccc(Oc4ccccc4)cc3)c2cc1OC [SrcI1] (first compound 0.2 µM, partner dose 2 µM)	100%	102%	109%	110%	86.6%	113%	107%	117%	108%	105%
CC1(C)NC(=O)N(c2ccc([N+](=O)[O-])c(C(F)(F)F)c2)C1=O [nilutamide] + CN(NC(=O)CC(=O)NN(C)C(=S)c1ccccc1)C(=S)c1ccccc1 [STA4783] (first compound 1 µM, partner dose 0.006 µM)	97.8%	88%	126%	100%	93.1%	94.3%	95%	89.1%	84.1%	90.3%
C[C@@H]1CCN(C(=O)CC#N)C[C@@H]1N(C)c1ncnc2[nH]ccc12 + O=C(Nc1cccc(Cl)c1)Nc1ncc(CCNc2ncnc3ccsc23)s1 [SNS314] (first compound 1 µM, partner dose 0.0008 µM)	102%	101%	112%	97.9%	100%	108%	117%	96.3%	103%	80.9%
O=c1[nH]nc(Sc2ncc([N+](=O)[O-])s2)n1-c1ccc2c(c1)OCCO2 + O=C(O)c1ccc(-c2c[nH]c3ncc(-c4ccccc4)cc23)cc1C1CCCC1 [GSK650394] (first compound 0.2 µM, partner dose 0.16 µM)	105%	98.3%	124%	99.8%	95%	103%	107%	100%	81%	102%
O=c1[nH]nc(Sc2ncc([N+](=O)[O-])s2)n1-c1ccc2c(c1)OCCO2 + CCCCCCCCCCCC1=C(O)C(=O)C=C(O)C1=O [Embelin] (first compound 0.2 µM, partner dose 1.2 µM)	103%	94.2%	84.6%	105%	105%	93.4%	116%	84.7%	120%	99.8%
O=c1[nH]nc(Sc2ncc([N+](=O)[O-])s2)n1-c1ccc2c(c1)OCCO2 + OCCn1cc(-c2cnc3nnn(Cc4ccc5ncccc5c4)c3n2)cn1 [PF04217903] (first compound 0.2 µM, partner dose 1 µM)	105%	98.3%	94.3%	100%	93.9%	93.1%	121%	101%	84%	102%
